# The supplement of paper PMC8728848
# Some of the results follow.
# B1: DBA (Dolichos biflorus) (protein)
# chain: ANIQSFSFKNFNSPSFILQGDATVSSGKLQLTKVKENGFPLRFPSGRAFYSSPIQIYDKFTGAVASWATSFTVKISAPSKASFADGIAFALVPVGSEPRRNGGYLGVFDSDVYNNSAQTVAVEFDTLSNSGWDPSMKHIGIDVNSIKSIATVSWDLANGENAEILITYNAATSLLVVSLVHPSRRTSYILSERVDITNELPEYVGVGFSATTGLSEGYIETHDVLSWSFASRLPDDSTAEPLDLARYLVRNVL
# Legend:
# Assay in all cases: glycan array binding signal (z-score within array); higher = stronger binding
# Conditions in all cases: glycan notation: IUPAC condensed, linker removed
# [1] = target: Gal3S6S(b1-4)GlcNAc
# In short: (§1)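 Arrays were curated from the Consortium for Functional Glycomics database, 3228 in total, and kept only where the protein sequence was available. Binding is expressed as a within-array Z-score. This score was averaged across arrays of the same protein sequence at different concentrations or buffers and across linkers, and negative values can be read as non-binding.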
# [2] = target: Gal3S6S(b1-4)GlcNAc6S
# In short: as §1
# [3] = target: Gal4S(b1-4)GlcNAc
# In short: as §1
# [4] = target: Gal4S6S(b1-4)GlcNAc
# In short: as §1
# [5] = target: Gal6P(b1-4)GlcNAc
# In short: as §1
# [6] = target: Gal6S(b1-3)GlcNAc
# In short: as §1
# [7] = target: Gal6S(b1-3)GlcNAc6S
# In short: as §1
# [8] = target: Gal6S(b1-4)Glc
# In short: as §1
# [9] = target: Gal6S(b1-4)Glc6S
# In short: as §1
# [10] = target: Gal6S(b1-4)GlcNAc
# In short: as §1
# [11] = target: Gal6S(b1-4)GlcNAc6S
# In short: as §1
# [12] = target: GalNAc(a1-3)Gal
# In short: as §1
# [13] = target: GalNAc(a1-3)GalNAc
# In short: as §1
# [14] = target: GalNAc(a1-3)GalNAc(a1-3)Gal(a1-4)Gal(b1-4)GlcNAc
# In short: as §1
# [15] = target: GalNAc(a1-3)GalNAc(b1-3)Gal(a1-4)Gal(b1-4)Glc
# In short: as §1
# [16] = target: GalNAc(b1-3)Gal
# In short: as §1
# [17] = target: GalNAc(b1-3)Gal(a1-4)Gal(b1-4)GlcNAc
# In short: as §1
# [18] = target: GalNAc(b1-3)Gal(a1-4)Gal(b1-4)GlcNAc(b1-3)Gal(b1-4)Glc
# In short: as §1
# [19] = target: GalNAc(b1-3)Gal(a1-6)Gal(b1-4)Glc
# In short: as §1
# [20] = target: GalNAc(b1-3)GalNAc
# In short: as §1
# [21] = target: GalNAc(b1-3)GlcNAc
# In short: as §1
# [22] = target: GalNAc(b1-4)Gal(b1-4)Glc
# In short: as §1
# [23] = target: GalNAc(b1-4)GlcNAc
# In short: as §1
# [24] = target: GalNAc(b1-4)GlcNAc(b1-2)Man
# In short: as §1
# [25] = target: GalNAc(b1-4)GlcNAc(b1-2)Man(a1-3)[GalNAc(b1-4)GlcNAc(b1-2)Man(a1-6)]Man(b1-4)GlcNAc(b1-4)GlcNAc
# In short: as §1
# [26] = target: GalNAc(b1-4)GlcNAc(b1-3)GalNAc(b1-4)GlcNAc
# In short: as §1
# [27] = target: GalNAc(b1-4)GlcNAc6S
# In short: as §1
# [28] = target: GalNAc(b1-6)GalNAc
# In short: as §1
# [29] = target: GalNAc3S(b1-4)GlcNAc
# In short: as §1
# [30] = target: GalNAc3S(b1-4)GlcNAc3S
# In short: as §1
# [31] = target: GalNAc3S(b1-4)[Fuc(a1-3)]GlcNAc
# In short: as §1
# [32] = target: GalNAc4S6S(b1-4)GlcNAc
# In short: as §1
# [33] = target: GalNAc6S(b1-4)GlcNAc
# In short: as §1
# [34] = target: Glc(a1-4)Glc
# In short: as §1
# [35] = target: Glc(a1-4)Glc(a1-4)Glc(a1-4)Glc
# In short: as §1
# [36] = target: Glc(a1-6)Glc(a1-6)Glc
# In short: as §1
# [37] = target: Glc(a1-6)Glc(a1-6)Glc(a1-6)Glc
# In short: as §1
# [38] = target: Glc(b1-4)Glc
# In short: as §1
# [39] = target: Glc(b1-6)Glc
# In short: as §1
# [40] = target: GlcA(b1-3)Gal
# In short: as §1
# [41] = target: GlcA(b1-3)GlcNAc
# In short: as §1
# [42] = target: GlcA(b1-6)Gal
# In short: as §1
# [43] = target: GlcA3S(b1-3)Gal(b1-4)GlcNAc(b1-2)Man
# In short: as §1
# [44] = target: GlcA3S(b1-3)Gal(b1-4)GlcNAc(b1-3)Gal(b1-4)Glc
# In short: as §1
# [45] = target: GlcNAc(a1-3)Gal(b1-4)GlcNAc
# In short: as §1
binder,measurement,setting,value
B1,glycan array binding signal (z-score),[1],-0.127
same,glycan array binding signal (z-score),[2],-0.164
same,glycan array binding signal (z-score),[3],-0.164
same,glycan array binding signal (z-score),[4],-0.128
same,glycan array binding signal (z-score),[5],-0.185
same,glycan array binding signal (z-score),[6],-0.199
same,glycan array binding signal (z-score),[7],-0.14
same,glycan array binding signal (z-score),[8],-0.125
same,glycan array binding signal (z-score),[9],-0.126
same,glycan array binding signal (z-score),[10],-0.161
same,glycan array binding signal (z-score),[11],-0.181
same,glycan array binding signal (z-score),[12],-0.052
same,glycan array binding signal (z-score),[13],12.1
same,glycan array binding signal (z-score),[14],12.5
same,glycan array binding signal (z-score),[15],13.4
same,glycan array binding signal (z-score),[16],-0.122
same,glycan array binding signal (z-score),[17],-0.135
same,glycan array binding signal (z-score),[18],-0.121
same,glycan array binding signal (z-score),[19],-0.087
same,glycan array binding signal (z-score),[20],-0.048
same,glycan array binding signal (z-score),[21],-0.113
same,glycan array binding signal (z-score),[22],-0.087
same,glycan array binding signal (z-score),[23],0.131
same,glycan array binding signal (z-score),[24],-0.093
same,glycan array binding signal (z-score),[25],0.145
same,glycan array binding signal (z-score),[26],0.07
same,glycan array binding signal (z-score),[27],1.8
same,glycan array binding signal (z-score),[28],-0.132
same,glycan array binding signal (z-score),[29],-0.122
same,glycan array binding signal (z-score),[30],-0.174
same,glycan array binding signal (z-score),[31],-0.127
same,glycan array binding signal (z-score),[32],-0.209
same,glycan array binding signal (z-score),[33],-0.131
same,glycan array binding signal (z-score),[34],-0.128
same,glycan array binding signal (z-score),[35],-0.1
same,glycan array binding signal (z-score),[36],-0.113
same,glycan array binding signal (z-score),[37],-0.084
same,glycan array binding signal (z-score),[38],-0.122
same,glycan array binding signal (z-score),[39],-0.103
same,glycan array binding signal (z-score),[40],-0.137
same,glycan array binding signal (z-score),[41],-0.12
same,glycan array binding signal (z-score),[42],-0.1
same,glycan array binding signal (z-score),[43],-0.159
same,glycan array binding signal (z-score),[44],-0.095
same,glycan array binding signal (z-score),[45],-0.15
